Assay results taken from the supplement of paper PMC11383711.
The other results are listed elsewhere or left out. Binding of human antibodies (heavy:light variable regions, tested as scFv in one mRNA-display pool) to influenza hemagglutinin, with or without the stem antibody CR9114 bound first. Score = (mean enrichment − median) / interquartile range of that screen; higher = more enriched, 0 = typical non-binder. Active = above the paper's cut-off per screen: stems 28; unblocked H1 Solomon Islands 5, H1 Michigan 3, H3 5, H5 19, H7 2.85, both B 5; blocked 9, 7, H5 10, H7 10, B Phuket 10, B Lee 11.5. Scores are scaled within each screen and are no affinities; replicates correlate at about 0.6 to 0.9, and antibodies rare in the pool are noisier.

B1: C1-3E05 (protein)
chain 1: VQLQESGPGLVTPSETLSLTCTVSGGSISSTIHYWGWIRQPPGKGLEWIGSVYYDGMTYHNPSLKSRVTMSADTSKNQFSLELSSVTAADTAVYFCARQQEGYYYYYGMDVWGQGTTVTVSS
chain 2: EIVLTQSPGTLSLSPGERATLSCRASQSVNSNYLAWYQQKPGQAPRLLIYGASSRATGIPDRFSGSGSGTDFTLTISRLEPEDFAVYYCQQYTSPGFTFGPGTKVDIK
B2: W85-3G10 (protein)
chain 1: EVQLVDSGGGVVRPGRSLRLSCAASGFTFSSYAMHWVRQAPGRGLEWVTFISHDGSNVYYADSVTGRFTISRDNSKNTLYLQMNSLRVEDTAVYYCARDYCSTSSCYVDYWGQGTLVTVSS
chain 2: NFMLTQPHSVSESPGKTVTISCTGSSGSIAYNYVQWYQQRPGSAPTTVIYEDNHRPSGVPDRFSGSVDSSSNSASLTISGLKTEDEADYYCQSYDSSNHVVFGGGTTADRP
B3: K77-2C09 (protein)
chain 1: QVQLVQSGAEVKKPGASVKVSCKASGYTFNKYYMHWVRQAPGQGLEWMGVINPSGGSTTYAQKFQGRVTMTRDTSTSTVFMDLSSLRSEDTAVYYCATDIAIVPTAPFYGMDGWGQGTAVTVSS
chain 2: DIVMTQSPLSLPVTPGEPASISCRSSQSLLHSDGHNCLGWYLRKPGQPPQLLIYLGSFRASGVPDRFSGSGSGTDFTLKISRVEAEDVGVYYCMQTLQTPLTFGGGTKVEIK
B4: W85-1E02 (protein)
chain 1: EVQLVESGGGVVQSGRSLRLSCAASGFTFSSYALHWVRQAPGKGLEWVAVISYDASEKYYADSVKGRFTISRDKSKKTLYLQMNSLRAEDTAVYYCARSHFYYDSGDYWGQGTLVTVSS
chain 2: DIQMTQSPSTLSASVGDKVTITCRASQSINRWLAWYQQKPGKAPKLLIYRASSLESGVPSRFSGSGSGTEFTLTISSLQPDDFATYFCQHYEGYSWTFGQGTKVDIK
B5: R95-2A07 (protein)
chain 1: QVQLVQSGSEVKKPGASVKVFCKASGYTFFNHYIHWVRQAPGQRLEWLGWVNTGNGDTKYAQKFQGRVTITRDTAARAAYMELSSLMSEDTAIYYCAREGTLGWGWDLRNEFYFMDVWGTGTTVIVSS
chain 2: QSALTQPPSVSGAPGQRVTISCTGSSSNIGAGFEVHWYQQLPGSAPKLLISGSGARPSGVPDRFSASKSATSASLAITGLQAEDEADYYCQSYDSTLSGVLFGGGTKLTVL
B6: 017-10-5E01 (protein)
chain 1: QVQLQESGPGLVKPSQTLSLTCNVSGISMSSPGSFWSWLRQRPGKGLEWLGYVSHSGHTKYTPSLKSRLSISLDVSQDQFSLRLNFVTAADTAVYYCAREYQEQIGRAFDFWGQGTLVTVSS
chain 2: DIQMTQSPSSLSASVGDRVTITCRASQRINTFLNWYQLKPGKAPKLLIYAASHLQSGVPSRFSATGFGTDFTLSISSLQPEDLATYYCQPTFTPSYTFGQGTKVEIK

These binders were tested against Influenza A H1N1 A/Michigan/45/2015 hemagglutinin ectodomain (assay: mRNA display binding score; higher = more enriched on the antigen). Details: antigen blocked with: 2 µM CR9114 IgG.
Protocol: (§1)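 A pool of natively paired antibodies, displayed as scFv on mRNA, was selected once on antigen-coated beads and sequenced before and after; two replicates.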
With B1 the “mRNA display binding score” value was inactive: 0.0142. B2 was tested, and the “mRNA display binding score” value was inactive: 0.124. In the case of B3, the “mRNA display binding score” value is reported as inactive: -0.225. In the case of B4, the “mRNA display binding score” value is reported as inactive: 1.1. With B5 the “mRNA display binding score” value was inactive: 0.454. B6 was tested, and the “mRNA display binding score” value was active: 14.8.

Same assay, conditions: antigen blocked with: nothing
In the case of B1, the “mRNA display binding score” value is reported as inactive: -0.445. B2 was tested, and the “mRNA display binding score” value was inactive: 1.43. In the case of B3, the “mRNA display binding score” value is reported as inactive: 0.17. B4 was tested, and the “mRNA display binding score” value was inactive: 1.61. B5 was tested, and the “mRNA display binding score” value was inactive: 0.711. B6 was tested, and the “mRNA display binding score” value was active: 3.93.

The binders below were run against Influenza A H1N1 A/Solomon Islands/3/2006 hemagglutinin ectodomain in the same assay as above. Details: antigen blocked with: 2 µM CR9114 IgG.
Protocol: as §1
B1 was tested, and the “mRNA display binding score” value was inactive: -0.18. For B2, the “mRNA display binding score” value was inactive: 0.365. In the case of B3, the “mRNA display binding score” value is reported as inactive: -0.453. For B4, the “mRNA display binding score” value was inactive: 2.11. With B5 the “mRNA display binding score” value was inactive: -0.215. For B6, the “mRNA display binding score” value was inactive: 1.9.

Same assay, conditions: antigen blocked with: nothing
With B1 the “mRNA display binding score” value was inactive: -0.358. In the case of B2, the “mRNA display binding score” value is reported as inactive: -0.0911. B3 was tested, and the “mRNA display binding score” value was inactive: 0.302. In the case of B4, the “mRNA display binding score” value is reported as inactive: 1.12. With B5 the “mRNA display binding score” value was inactive: 0.449. In the case of B6, the “mRNA display binding score” value is reported as inactive: 2.87.

What follows are binders tested against Influenza A H3N2 A/Singapore/INFIMH-16-0019/2016 hemagglutinin ectodomain in the same assay as above. Details: antigen blocked with: nothing.
Protocol: as §1
With B1 the “mRNA display binding score” value was inactive: -0.402. For B2, the “mRNA display binding score” value was inactive: -0.000737. For B3, the “mRNA display binding score” value was inactive: -0.231. With B4 the “mRNA display binding score” value was inactive: 1.64. In the case of B5, the “mRNA display binding score” value is reported as inactive: -0.178. In the case of B6, the “mRNA display binding score” value is reported as active: 30.5.

Each binder was assayed against Influenza A H5N1 A/Qinghai/1A/2005 hemagglutinin ectodomain in the same assay as above. Details: antigen blocked with: 2 µM CR9114 IgG.
Protocol: as §1
With B1 the “mRNA display binding score” value was inactive: 0.526. For B2, the “mRNA display binding score” value was inactive: 1.34. B3 was tested, and the “mRNA display binding score” value was inactive: 1.21. B4 was tested, and the “mRNA display binding score” value was inactive: 1.22. For B5, the “mRNA display binding score” value was inactive: -0.393. In the case of B6, the “mRNA display binding score” value is reported as inactive: 0.331.

Same assay, conditions: antigen blocked with: nothing
For B1, the “mRNA display binding score” value was inactive: 2.64. B2 was tested, and the “mRNA display binding score” value was inactive: 0.986. For B3, the “mRNA display binding score” value was inactive: 6.31. With B4 the “mRNA display binding score” value was inactive: 0.518. In the case of B5, the “mRNA display binding score” value is reported as inactive: 2.69. With B6 the “mRNA display binding score” value was inactive: 0.933.

What follows are binders tested against Influenza A H7N9 A/Shanghai/2/2013 hemagglutinin ectodomain in the same assay as above. Details: antigen blocked with: 2 µM CR9114 IgG.
Protocol: as §1
In the case of B1, the “mRNA display binding score” value is reported as inactive: -0.136. For B2, the “mRNA display binding score” value was inactive: 0.583. B3 was tested, and the “mRNA display binding score” value was inactive: -1.27. B4 was tested, and the “mRNA display binding score” value was inactive: 1.61. With B5 the “mRNA display binding score” value was inactive: -0.601. For B6, the “mRNA display binding score” value was active: 10.8.

Same assay, conditions: antigen blocked with: nothing
B1 was tested, and the “mRNA display binding score” value was inactive: -0.282. B2 was tested, and the “mRNA display binding score” value was inactive: 1.64. With B3 the “mRNA display binding score” value was inactive: -0.332. B4 was tested, and the “mRNA display binding score” value was inactive: 2.52. With B5 the “mRNA display binding score” value was inactive: -0.0496. For B6, the “mRNA display binding score” value was active: 2.86.

Each binder was assayed against Influenza B/Lee/1940 hemagglutinin ectodomain in the same assay as above. Details: antigen blocked with: 2 µM CR9114 IgG.
Protocol: as §1
For B1, the “mRNA display binding score” value was inactive: 0.0343. For B2, the “mRNA display binding score” value was inactive: -1.35. In the case of B3, the “mRNA display binding score” value is reported as inactive: 0.723. For B4, the “mRNA display binding score” value was inactive: 0.116. In the case of B5, the “mRNA display binding score” value is reported as inactive: 3.77. For B6, the “mRNA display binding score” value was inactive: -0.557.

Same assay, conditions: antigen blocked with: nothing
In the case of B1, the “mRNA display binding score” value is reported as inactive: 0.13. For B2, the “mRNA display binding score” value was inactive: -0.251. B3 was tested, and the “mRNA display binding score” value was active: 5.62. B4 was tested, and the “mRNA display binding score” value was inactive: 0.0713. With B5 the “mRNA display binding score” value was active: 28.7. For B6, the “mRNA display binding score” value was inactive: 0.277.

What follows are binders tested against Influenza B/Phuket/3073/2013 hemagglutinin ectodomain in the same assay as above. Details: antigen blocked with: 2 µM CR9114 IgG.
Protocol: as §1
For B1, the “mRNA display binding score” value was active: 36.1. In the case of B2, the “mRNA display binding score” value is reported as inactive: 0.153. For B3, the “mRNA display binding score” value was active: 40.2. In the case of B4, the “mRNA display binding score” value is reported as inactive: 1.03. In the case of B5, the “mRNA display binding score” value is reported as inactive: -0.135. With B6 the “mRNA display binding score” value was inactive: 0.76.

Same assay, conditions: antigen blocked with: nothing
For B1, the “mRNA display binding score” value was active: 36.7. With B2 the “mRNA display binding score” value was inactive: 0.115. B3 was tested, and the “mRNA display binding score” value was active: 38.8. B4 was tested, and the “mRNA display binding score” value was inactive: 0.166. For B5, the “mRNA display binding score” value was active: 9.46. With B6 the “mRNA display binding score” value was inactive: 0.335.
